# Measurements from paper PMC7819943, “Rice protein-binding microarrays: a tool to detect cis-acting elements near promoter regions in rice”.
# This is one part of the list.
# Target: T1, OsWOX13 (Oryza sativa, UniProt Q5QMM3 1-267)
# T1 sequence: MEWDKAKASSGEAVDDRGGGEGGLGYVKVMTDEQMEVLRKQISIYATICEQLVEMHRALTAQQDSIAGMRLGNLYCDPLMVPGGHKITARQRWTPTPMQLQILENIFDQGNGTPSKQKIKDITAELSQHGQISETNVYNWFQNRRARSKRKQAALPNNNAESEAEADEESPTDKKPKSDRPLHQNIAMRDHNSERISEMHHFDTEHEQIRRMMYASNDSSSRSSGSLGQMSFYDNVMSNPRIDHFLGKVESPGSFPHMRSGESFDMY
# Assay: protein-binding microarray (RPBM); PBS, 2% BSA, 51.3 ng/ul salmon testes DNA, 50 uM zinc acetate, 200 nM TF, 25 C, 1 h; high values mean tight binding
# Conditions: protein: recombinant; tags: N-terminal polyhistidine and DsRed monomer fusion (pET32a); label: CyDye5-dUTP incorporated in the synthesized complementary strand; 3' TTTTT single-stranded linker to array surface; dsDNA, one strand shown
# How it was run: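 The binding signal is fluorescence intensity per array feature (arbitrary units). Readings came from an Axon 4000B scanner after a washed, 2% BSA-blocked, double-stranded custom Agilent array had been incubated for 1 h at 25 °C with 200 nM protein and 50 µM zinc acetate. The protein was a Ni–NTA-purified transcription factor fused N-terminally to polyhistidine and DsRed, expressed in E. coli BL21-CodonPlus.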
row,Sequence,binding signal
1,GGCCAGTGATTATTTTATTAGACGGGTATATCTTCTAGCCCGGAGTCACCTAGTGCAG,26200 fluorescence intensity (a.u.)
2,ACTCGATTGATGTTGTCCTCGCCATGAAGCAACCACGACCCGGAGTCACCTAGTGCAG,23900 fluorescence intensity (a.u.)
3,TCATTAATTTTCTATCAAATCTTGAAGTTGCAATTTGCAACGGAGTCACCTAGTGCAG,11200 fluorescence intensity (a.u.)
4,AAGCAAATCGCCAATTAAGAGCTCCAATACCATAGCTTCTCGGAGTCACCTAGTGCAG,3990 fluorescence intensity (a.u.)
5,CAATAATTTGGCTCATGCTTCTCCTTCTCCTGCATGCTGCCGGAGTCACCTAGTGCAG,9460 fluorescence intensity (a.u.)
6,TAGATTGGCTATAGATGAATTGGAGCTAGTAGTTGGCTATCGGAGTCACCTAGTGCAG,25400 fluorescence intensity (a.u.)
7,GACATTAATTGGATGGACACATGCTAACCAACTAAAATACCGGAGTCACCTAGTGCAG,13300 fluorescence intensity (a.u.)
8,TTTGATGGGAACTTAATGCAGCCTTGGTTTTCTCTGCCAACGGAGTCACCTAGTGCAG,23200 fluorescence intensity (a.u.)
9,TGAGGATTCTCCAGATTGATTGGTACACAAAGACAGACAACGGAGTCACCTAGTGCAG,22700 fluorescence intensity (a.u.)
10,ACGTGCATCGAGATTGCTTGTGATGATCATTTCAATAATGCGGAGTCACCTAGTGCAG,3290 fluorescence intensity (a.u.)
11,GATTCAATTAATCAGGTTAGGTACATGATTGTTTCCCCTGCGGAGTCACCTAGTGCAG,37300 fluorescence intensity (a.u.)
12,CAGCAGCATTAATTTGTTGATGATCGTTGCGGTGCCTTTACGGAGTCACCTAGTGCAG,7350 fluorescence intensity (a.u.)
13,AGAACACAATCCACTAATTAGTCGAATCCAGAGCTATTAACGGAGTCACCTAGTGCAG,6260 fluorescence intensity (a.u.)
14,ACCTCCCTTTAATTGCTGTATTTTATTCCCTAATCTCACTCGGAGTCACCTAGTGCAG,7650 fluorescence intensity (a.u.)
15,TTTAAAATTAATACTTAAATTAATTATGTGCTAATGAACCCGGAGTCACCTAGTGCAG,23900 fluorescence intensity (a.u.)
16,GATTATCTATTTATAAATTTAATATTTTGACAAATACATTCGGAGTCACCTAGTGCAG,7580 fluorescence intensity (a.u.)
17,GTTAATTACTTGCCACAAAACCGGGCTTAACAGAATACAGCGGAGTCACCTAGTGCAG,15900 fluorescence intensity (a.u.)
18,AAACTAATTACTACTACTAGCACCACACATTAACATCCACCGGAGTCACCTAGTGCAG,13800 fluorescence intensity (a.u.)
19,GTGAATGTGATTTGTTGCTTTGATATTTTCATGTAACAATCGGAGTCACCTAGTGCAG,17500 fluorescence intensity (a.u.)
20,GGAAACCAGCCTTAACATGATTAAATTCCAATCATTATTACGGAGTCACCTAGTGCAG,4670 fluorescence intensity (a.u.)
21,GATAATTTGTCAGAAAATTCCGGGAATTTTGAATAGGACTCGGAGTCACCTAGTGCAG,17300 fluorescence intensity (a.u.)

row,Sequence,binding signal
1,ATCCTATGATTACTACACGATAACTAATGAGAAACTACTACGGAGTCACCTAGTGCAG,6780 fluorescence intensity (a.u.)
2,TACTACTAATTATATGCCGATTGAGAGTGTTGTAGCGTCACGGAGTCACCTAGTGCAG,17700 fluorescence intensity (a.u.)
3,CAACTAAACTCCCTATCAATTTCCATCACCTCTACCAAACCGGAGTCACCTAGTGCAG,5360 fluorescence intensity (a.u.)
4,TGCCTAGCTAATTCGCGTCATTCATCTCCTCCTCCTTATACGGAGTCACCTAGTGCAG,3760 fluorescence intensity (a.u.)
5,CGTAAAATATTAATCATATTTTATCTTCTAACAACAATGACGGAGTCACCTAGTGCAG,5570 fluorescence intensity (a.u.)
6,GCGAGCCGTGTGATTGCCTGCTCCTCCTCCGATCCTGTGTCGGAGTCACCTAGTGCAG,9380 fluorescence intensity (a.u.)
7,TGTGCTTAACCGCGAAATTTAGTCAATTGTTAAAGAATGGCGGAGTCACCTAGTGCAG,3790 fluorescence intensity (a.u.)
8,TAATTTAATTTAATTACCTCCCTAATCACTCTCGCTCGCTCGGAGTCACCTAGTGCAG,46200 fluorescence intensity (a.u.)
9,GAATTCAATTTCTAGATTTGACACTATGCTCGCTTCGCGTCGGAGTCACCTAGTGCAG,3640 fluorescence intensity (a.u.)
10,AAAACAAAATTGGAAAGAATTTTGTTGGAAACCAATGGCTCGGAGTCACCTAGTGCAG,5540 fluorescence intensity (a.u.)
11,ACTAATTAATGGGTGTTTCATTACGACAACGGCGGCGGCCCGGAGTCACCTAGTGCAG,26200 fluorescence intensity (a.u.)
12,GGATTATTTCGTGATTGTAGGAACCTGCAGAGCACCTTCCCGGAGTCACCTAGTGCAG,5170 fluorescence intensity (a.u.)
13,CTTTGTCTTTGTTTCTTGTTGATTGCAGGATCAAATCAACCGGAGTCACCTAGTGCAG,5330 fluorescence intensity (a.u.)
14,ATTACAAAGTTAGTTAATTTATCATTTCTGCTAGTCAACACGGAGTCACCTAGTGCAG,3710 fluorescence intensity (a.u.)
15,AAAATTGATCAATTTGGGTCAAGATCGAATAAGTGAAGCCCGGAGTCACCTAGTGCAG,43500 fluorescence intensity (a.u.)
16,TATCACCTTAATTAATTATTGGAAGTAGAAGCGATAGGGTCGGAGTCACCTAGTGCAG,19900 fluorescence intensity (a.u.)
17,AGTGACAATCACGTCTTCATAGTTGTGTCATCTTATGGAGCGGAGTCACCTAGTGCAG,8490 fluorescence intensity (a.u.)
18,TTAGATAATGGAATATACACGGATGCTCTTGTGTTCTTGTCGGAGTCACCTAGTGCAG,7550 fluorescence intensity (a.u.)
19,GAAAATTGGACTGAGTGACAACTTGAGGAGCTAAAGTGAACGGAGTCACCTAGTGCAG,13600 fluorescence intensity (a.u.)
20,AAAGATTAATATATGTGATGCATTATGAAGATAGCATAATCGGAGTCACCTAGTGCAG,6480 fluorescence intensity (a.u.)
21,TATTATTGATTTTGAAGTAAAATAAATTTACTTAACCCAACGGAGTCACCTAGTGCAG,11500 fluorescence intensity (a.u.)

row,Sequence,binding signal
1,AATATATAATAGATAGATAGATTTCTAACGACTTCTTTTGCGGAGTCACCTAGTGCAG,22700 fluorescence intensity (a.u.)
2,CCAAAATGGATTTGCTATTACACTTGTCAATTCTCCCTTGCGGAGTCACCTAGTGCAG,8530 fluorescence intensity (a.u.)
3,CTAGATTATTTTAATCTATAAGCTAGATTACTATAATCCACGGAGTCACCTAGTGCAG,15200 fluorescence intensity (a.u.)
4,GACAGTAATCCGTTAAACTCAATTATTGGCACTCTGCTAGCGGAGTCACCTAGTGCAG,6120 fluorescence intensity (a.u.)
5,TATAAAATAATTTTATATAAGACAGACAATTAAAGTTGGACGGAGTCACCTAGTGCAG,3660 fluorescence intensity (a.u.)
6,CGTCTAATTATAAATCATAACACATTATTCGTAAAATAATCGGAGTCACCTAGTGCAG,15000 fluorescence intensity (a.u.)
7,TTAATTAAACCAATTTAATATTTTATATGTTGTTAAATTTCGGAGTCACCTAGTGCAG,8440 fluorescence intensity (a.u.)
8,CTGTTAATGAGATGGCAGATCATGTAGATGCCCCTCCTTTCGGAGTCACCTAGTGCAG,5520 fluorescence intensity (a.u.)
9,TTGATTGGGTCTGTGGTGGAACAGGACGATCATACATCACCGGAGTCACCTAGTGCAG,21000 fluorescence intensity (a.u.)
10,GCAGGATTGTAATTGCACGTGAATAGCGGCATAGCCCCACCGGAGTCACCTAGTGCAG,12100 fluorescence intensity (a.u.)
11,CATTCCAATCACCTCGGCGAGATCAGTCCAAACTCCAAAGCGGAGTCACCTAGTGCAG,14200 fluorescence intensity (a.u.)
12,TTCCTGAAATTTGACACAAAACTGAATTTCAGGCCCATGACGGAGTCACCTAGTGCAG,6020 fluorescence intensity (a.u.)
13,CACTTAACTGAACACTTACTTCTCGGTGACAAGTGAAATGCGGAGTCACCTAGTGCAG,10800 fluorescence intensity (a.u.)
14,TTGATTCTTTCGGTGATTTAAAAGGATAGTTTCGCTAACGCGGAGTCACCTAGTGCAG,4540 fluorescence intensity (a.u.)
15,ACTGCAATGTAAATTGAATGTAACTTTTATATAATTTTAACGGAGTCACCTAGTGCAG,4080 fluorescence intensity (a.u.)
16,GACAAATGATCTTAATCAAATAATTACTAACTATATGTCTCGGAGTCACCTAGTGCAG,13500 fluorescence intensity (a.u.)
17,GTAATTTTAGAATCTAGATGATTAAAGATCTTAGATAAATCGGAGTCACCTAGTGCAG,3620 fluorescence intensity (a.u.)
18,ATACAAATAACCTTAATTAATTGTGTTAATTCTGTACACACGGAGTCACCTAGTGCAG,20400 fluorescence intensity (a.u.)
19,GGGTGATTGAATCCTTGTCATCTAGTGTAAGGCATCTTTCCGGAGTCACCTAGTGCAG,36400 fluorescence intensity (a.u.)
20,ACATGGGAATTTTGGTGGGATGGGGATGGGGATGGGGAATCGGAGTCACCTAGTGCAG,7450 fluorescence intensity (a.u.)
21,ATTGACATAGGAGTGTGATTTACTTTCCTAGAGATATAATCGGAGTCACCTAGTGCAG,8960 fluorescence intensity (a.u.)

row,Sequence,binding signal
1,TTTAATTTTGAGAATTTCTATGGCATCAAAAGGATTGCATCGGAGTCACCTAGTGCAG,5880 fluorescence intensity (a.u.)
2,CGTAGACTAATAACAAAACAAATTACAGATTCCGTCTGTACGGAGTCACCTAGTGCAG,6750 fluorescence intensity (a.u.)
3,CAAGTTTGATTGAGTCAATGGTTTTATGGGCTCGTGGCCTCGGAGTCACCTAGTGCAG,45200 fluorescence intensity (a.u.)
4,CGAAGAGGCCAGCTGATTGACTCTACACTCGGGTTGCGGTCGGAGTCACCTAGTGCAG,29400 fluorescence intensity (a.u.)
5,AGTTTTCTGTTCAATGATTTGGTTGAATCAAATTGTTCCTCGGAGTCACCTAGTGCAG,4400 fluorescence intensity (a.u.)
6,GAAAATTGAGAAACCATGGAGACCGCGCATCTAGCCTACGCGGAGTCACCTAGTGCAG,16900 fluorescence intensity (a.u.)
7,GTCAAATCATGACGTAATTAGGCTTAAAAGATTTGTCTCGCGGAGTCACCTAGTGCAG,23300 fluorescence intensity (a.u.)
8,GCTGAACCTAACAAAATTCAATTATATGCAGCATATAATGCGGAGTCACCTAGTGCAG,3160 fluorescence intensity (a.u.)
9,TAGGATTTAAATCATATGAAATTCCTAAATAAATCCTTTGCGGAGTCACCTAGTGCAG,7560 fluorescence intensity (a.u.)
10,TGGGATAAATTTACAATTACTACTATCTCCATTTTAAATACGGAGTCACCTAGTGCAG,12700 fluorescence intensity (a.u.)
11,ATAATGATGAGTAGTAATATAATAATAGGTTGTAGATCAACGGAGTCACCTAGTGCAG,7770 fluorescence intensity (a.u.)
12,TTGAAAATTTAAAGAAATTGGAACGATGTGACGGAAAAGTCGGAGTCACCTAGTGCAG,9930 fluorescence intensity (a.u.)
13,TTTAATTAACAAAATTATTGGTGACAGAGACCGAATATATCGGAGTCACCTAGTGCAG,38300 fluorescence intensity (a.u.)
14,GTGGTGATTTGGGACCTAGATGACACACTATGACAAGTTCCGGAGTCACCTAGTGCAG,17400 fluorescence intensity (a.u.)
15,AATTCAAATTTGAATCAGATATAATTCAAATTCAAATTTGCGGAGTCACCTAGTGCAG,7140 fluorescence intensity (a.u.)
16,TGATTAATCCGTAATTGCAGGAACCTAAATTACTAATGTCCGGAGTCACCTAGTGCAG,12400 fluorescence intensity (a.u.)
17,GTTGATTTTGTAGGGTTAAATTGAAGTTTCCACTTGATATCGGAGTCACCTAGTGCAG,25500 fluorescence intensity (a.u.)
18,AGCCAATCAGTAAACAAGAAAACCACCCTGACCCCTGGCACGGAGTCACCTAGTGCAG,23500 fluorescence intensity (a.u.)
19,GGCCATCAATCATGCCTTTAATCGCCTTGAATCGTCGCCTCGGAGTCACCTAGTGCAG,26200 fluorescence intensity (a.u.)
20,GTGTGTGAAATTGATGTTTTGACTGGAACTTCTCTAGCGTCGGAGTCACCTAGTGCAG,16400 fluorescence intensity (a.u.)
21,CAAGATTAGAGTGTCATAAAGATGGAAGCACTAATCCCGACGGAGTCACCTAGTGCAG,4710 fluorescence intensity (a.u.)
